# Whole data set: some 33,000 sequences, median “E-score (-0.5 to 0.5)” near -0.012, cut for the highest 2% near 0.27. The list shows a part of the results.
# Target: T1, Vhr1 (UniProt P40522)
# T1 sequence: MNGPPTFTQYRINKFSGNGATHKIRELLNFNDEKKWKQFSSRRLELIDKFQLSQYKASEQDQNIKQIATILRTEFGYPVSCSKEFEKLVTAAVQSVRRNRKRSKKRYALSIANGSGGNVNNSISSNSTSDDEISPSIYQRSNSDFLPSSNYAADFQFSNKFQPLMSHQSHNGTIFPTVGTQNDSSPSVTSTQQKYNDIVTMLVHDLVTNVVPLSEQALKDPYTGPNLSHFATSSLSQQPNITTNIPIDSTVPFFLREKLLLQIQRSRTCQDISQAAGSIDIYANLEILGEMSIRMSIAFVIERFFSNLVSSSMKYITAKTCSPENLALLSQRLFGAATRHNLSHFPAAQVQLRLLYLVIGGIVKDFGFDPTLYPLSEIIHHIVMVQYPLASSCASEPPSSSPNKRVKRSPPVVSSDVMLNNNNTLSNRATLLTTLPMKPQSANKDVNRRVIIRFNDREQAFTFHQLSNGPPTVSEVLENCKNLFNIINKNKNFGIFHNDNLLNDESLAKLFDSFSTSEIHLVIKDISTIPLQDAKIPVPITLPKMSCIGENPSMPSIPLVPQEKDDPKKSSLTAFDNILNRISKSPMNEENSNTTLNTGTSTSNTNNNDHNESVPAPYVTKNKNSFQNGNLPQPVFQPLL
# Assay: PBM E-score (8-mer binding enrichment) (E-score (-0.5 to 0.5)); higher = stronger / more preferred TF binding; most listed sequences are background and not binding sites
# Conditions: protein concentration: 200 nM; construct: GST-full length
# How it was run: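 The E-score, a modified Wilcoxon-Mann-Whitney statistic, was computed by the Universal PBM Analysis Suite for every ungapped eight-base word pooled with its reverse complement. Scans behind it were normalised with masliner after bound GST-tagged yeast transcription factors were detected with fluorescent anti-GST. The proteins, at about 100-200 nM, had been applied to universal all-10-mer Agilent arrays made double-stranded by primer extension.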
row,Sequence,PBM E-score
1,ACCATAAG,-0.127
2,ATATCTGA,0.15
3,GAGATTGA,-0.0632
4,CATTCCCA,-0.0756
5,ATGCCGCA,-0.0531
6,ACCTGGAA,0.059
7,ATTCTAAG,-0.137
8,AATGTCTC,0.137
9,AACAATGA,0.0764
10,CCCTCCCC,0.253
11,GAAGAGGA,-0.197
12,ACTCTTCT,-0.00346
13,AGGTCCGA,0.0653
14,CTAGCTCC,-0.0863
15,CCTCAAAC,0.0109
16,CCACCCCG,0.206
17,AGGGACAG,-0.195
18,CGCCCAAC,0.169
19,CAATGCGA,0.159
20,ACCGCTGG,-0.0773
21,CCCGCGCC,0.12
22,AATTAGCG,0.0239
23,AGAACGTA,0.00487
24,ACTTCCAG,-0.171
25,AGTAGCCG,-0.0858

row,Sequence,PBM E-score
1,AGAGTAAT,0.0347
2,TCATTGCA,0.0595
3,TCTCAACA,0.113
4,GAACTCGC,0.0069
5,ACAGGTAG,-0.108
6,AGCAAGGA,-0.0877
7,AAAGTCAT,0.256
8,AGCCATTG,0.172
9,AGATCCAC,0.0604
10,AATGTGAC,0.0641
11,GAGCGGAA,0.0965
12,CACGAGGG,-0.139
13,AGGACTAA,0.054
14,CAACGGCC,-0.0818
15,AAGTGTAA,-0.173
16,ACTCACTG,0.265
17,AACAACAA,0.254
18,AAACGCGC,0.00387
19,CGTGTGCA,0.0256
20,CACCCGTC,0.0428
21,CAAGTGGG,-0.0449
22,AAATGACT,0.207
23,GCAGGTTA,-0.0603
24,TACTGCTA,-0.0244
25,ATCTGCTC,-0.111

row,Sequence,PBM E-score
1,AAACACAT,0.252
2,AGGGCCCT,-0.156
3,TGGAGCAA,0.0648
4,AGAATAGC,-0.00175
5,ATCCTCGG,0.021
6,AGTCGTAC,0.226
7,CCCAATAA,0.0108
8,ACGAGGGG,-0.0837
9,GCGTTGAC,0.00037
10,ATCAGACG,0.0204
11,ACTGCGGG,0.0914
12,GCTTATAC,-0.0258
13,AGAGAGTA,-0.088
14,TCTGGAAA,0.0756
15,CCCAGGTA,-0.0389
16,CCCCTCGA,0.0954
17,CAATGGGC,0.0284
18,CGTGGAGA,-0.0535
19,ACGATTCG,0.0532
20,GGCTTAAC,-0.0218
21,ATGAGCGG,-0.0573
22,GAGGCAAC,-0.172
23,AAGGGATG,-0.0979
24,CGCTGCTA,-0.127
25,TCCACCGA,0.127

row,Sequence,PBM E-score
1,ACGTCCAA,-0.158
2,GTTGGTAA,0.0661
3,AATAGCCA,0.0231
4,GTTGCAAA,-0.0878
5,AATTAATC,0.145
6,CTGCATGC,0.14
7,AGGGTCTC,-0.116
8,CTCCGCGC,0.104
9,GATCTCAC,0.0664
10,TCTCGTCA,-0.0493
11,ATCTATGC,0.0795
12,CCGACTAA,0.129
13,AAGATCAA,-0.09
14,GACACTAA,0.125
15,CGCGATAG,-0.014
16,AAACGCAC,0.142
17,GAGAACTC,0.0378
18,AACAGCCC,-0.148
19,ATCGTACG,0.129
20,AGTGCCTC,-0.241
21,AGATCGCT,-0.0841
22,ATTCAAAT,-0.112
23,CTCGCTAA,0.127
24,AGGCAAAT,-0.111
25,AAAAACAG,-0.171

row,Sequence,PBM E-score
1,TCGACCCA,0.166
2,ATGCATGC,-0.0419
3,AACGGAAC,-0.00826
4,AGCAATAA,-0.0386
5,GACTTGCA,0.00767
6,AGACACCA,0.137
7,ACCCCGCA,-0.0917
8,CCTGTTGA,-0.18
9,AGAGTACA,-0.17
10,AGTTGTAT,0.209
11,ATTACGGG,0.104
12,GAGCGTTA,-0.0236
13,ATTGGCAC,0.148
14,CTACGGAC,-0.121
15,GATACGGA,0.0144
16,TAAGATCA,0.0196
17,GCAAGCCA,0.0396
18,GAATATGC,-0.0476
19,AGAACTAT,0.0364
20,ACCCGAGC,0.0234
21,TGTATCAA,0.269
22,ATTCTCTG,-0.0449
23,GAGCTATA,-0.158
24,AGTTATCA,-0.161
25,CGCCTCCG,0.0324

row,Sequence,PBM E-score
1,ACAAACTG,-0.181
2,AGGCGAGG,0.0443
3,CGGGAAGA,0.177
4,ATGTTATC,0.105
5,AGTGCTGG,0.13
6,GCCAGACA,0.0199
7,GGTGTCAC,0.264
8,ATACCGGG,0.228
9,CTACTGAC,0.0908
10,CCCACCTC,-0.0129
11,GAGACAGC,0.0884
12,AGCTTACG,-0.105
13,CGAAGTCC,-0.153
14,ATATACGC,-0.0157
15,TGCCCGCA,0.0964
16,AATGCTGA,0.027
17,GCCGCTGA,0.034
18,GACCCTCA,-0.276
19,GTATAAGA,0.0885
20,CGCCTAAG,-0.192
21,ATCGTGCG,0.1
22,CGAACTGA,-0.0599
23,CGGAGACG,0.193
24,CGCCACTA,-0.0573
25,TCCACAGA,0.1

row,Sequence,PBM E-score
1,GAACTCCA,-0.13
2,GCAGATAA,-0.00576
3,AATTATGA,-0.00556
4,CCAAGTCG,0.00863
5,GAAGTTGA,0.0521
6,AAGGGTAT,0.0534
7,CGACCGAA,-0.0831
8,CAGAGAAG,0.0396
9,GGAATAGA,-0.0365
10,GCCCGTAA,0.0148
11,AGATCTAA,-0.0895
12,AGAGTGCG,0.119
13,AGAGGAAC,-0.0678
14,CTCCTCCA,0.0762
15,ATGAATAG,-0.0504
16,AGCGTTAG,-0.164
17,CCCTTAGG,-0.173
18,GTGAAAAA,-0.0605
19,CAATCGAC,-0.0834
20,ACGAGAGT,0.101
21,GTTATTTA,-0.175
22,AGCTTAGC,-0.175
23,AAAGCTGA,-0.151
24,AGGTTTCC,-0.136
25,AGGCTGAC,0.153

row,Sequence,PBM E-score
1,CCATAATC,0.237
2,ATGCCGTG,0.0498
3,AAGCTAGC,-0.233
4,ATGAACAG,-0.0314
5,CAGGCGTC,-0.084
6,ACTGACAG,0.0657
7,AACGCCAC,-0.091
8,CATGATTA,0.369
9,CAAAGACG,-0.157
10,ACTACCCG,0.0556
11,CTCATCGA,0.0686
12,AAAGCAGC,-0.146
13,GCCGCCGC,-0.0973
14,ATGCCGAC,0.147
15,ATGGGGAC,-0.00351
16,ACCTCTCA,-0.0635
17,CTACTAAC,0.167
18,ACACAGAT,-0.00225
19,CCCAGCGA,0.126
20,GGCCAACA,-0.0257
21,CAGCAATG,-0.0464
22,AGACGGTG,-0.246
23,CAAGACAG,0.0217
24,ACGAGTTC,0.0694
25,CTACCTTC,-0.128

row,Sequence,PBM E-score
1,CAATGCCC,-0.0915
2,CACCGATC,0.0664
3,AGGTGAAA,-0.0873
4,ACTCACAA,0.286
5,AATTCATG,0.214
6,CCACAAGG,0.0586
7,GCGGATCC,0.157
8,CCACTAGC,-0.152
9,CCATAGAG,-0.216
10,GCCGTTCA,-0.178
11,GAGACCTA,0.0908
12,ACCACAAT,0.174
13,GAACGCGC,0.0952
14,GCGACGAC,-0.114
15,AGAGTGGA,-0.0838
16,GCCTTCAA,-0.135
17,ATATCGCC,0.0318
18,AGTGCATG,-0.0471
19,AACACACT,0.205

# From the supplement of paper PMC3334620
